B1: CPEB3 Ribozyme (parent)
chain: UAACAGGGGGCCACAGCAGAAGCGUUCACGUCGCAGCCCCUGUCAGAUUCUGGUGAAUCUGCGAAUUCUGCUGUAUAUCUC

Read counts are not given, so values of variants with three or more changes are uncertain.

Self-cleavage data for 167 variants are collected here from the RNAGym collection of RNA variant scans (doi:10.1093/nar/gkz1192).

The variants in this data set derive from B1. The experiment in a line: self-cleavage, relative activity (ratio to wild type); higher = more cleavage; in vitro, sequencing. Summed up:
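Libraries of CPEB3 self-cleaving ribozyme mutants came from rounds of error-prone PCR and carried barcodes, which DNA sequencing matched to variants. In vitro transcription used T7 RNA polymerase at 37°C for 5 hours, with a further 15 min in DNase I before EDTA stopped the reaction; the ribozymes cleaved during both steps. The RNA was reverse transcribed with template switching and sequenced on Illumina. Relative activity is the cleaved/total read fraction of a variant divided by that of the unmutated ribozyme, averaged over three batches with at least 5 reads.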
As to U26C U31A G46A A56U U78A, the self-cleavage was determined as 0.11.
The same measure for U26C C40U A47G: 0.18; for U26C U41C U49C U72C: 0.17; for U26C A64U G73U: 0.15.
U26C G63U U80C: the self-cleavage came out at 0.54.
For U26C C27A A57G U60C A65G U67A, the self-cleavage was determined as 0.05.
Take U26C G33A A35U: the self-cleavage worked out at 0.17.
Next, U26C G55U C62U: 0.16; U26C A57C U69A: 0.15; U26C C34G U67C U80C: 0.08.
Next, U26C C32U A47G U66C: 0.11; U26C U31A U69A: 0.16; U26C A56G U60C: 0.26.
The same measure for U26C A56G U60G: 0.24; for U26C C34U U54G U66C: 0.06; for U26C U43C U66C: 0.26.
In the case of U26C U41G U51A C62U U67C U74C, the self-cleavage was 0.16.
U26C U31A U49A U58C U67C U80C: the self-cleavage came to 0.07.
In the case of U26C U43C C62U A64G U69C U74C, the self-cleavage is 0.16.
The same measure for U26C U41A U48C U51A A56U G63A: 0.06; for U26C C27G U31C U76C: 0.23; for U26C G33A U48A: 0.12.
The same measure for U26C U31G U72C: 0.14; for U26C A64G U72C: 0.36; for U26C U43A A57G U69A: 0.23.
Next, U26C A56G A64U U66C: 0.14; U26C U31A U58A C59A: 0.08.
U26C C29G C40G U48C U69A: the self-cleavage came out at 0.05.
Next, U26C A56G U60A U72C: 0; U26C C40U A45G: 0.14.
Next, U26C C32A U41G: 0.26.
The same measure for U26C G30A U54C: 0.1; for U26C A64U A75G: 0.17; for U26C U41G U80A: 0.23.
U26C G61A G70C: the self-cleavage turned out to be 0.13.
As to U26C U31C U67A U72C U74C, the self-cleavage was determined as 0.17.
Regarding U26C A65C U69C, the self-cleavage was determined as 0.15.
In the case of U26C G33A U43C G46A, the self-cleavage amounted to 0.06.
As to U26C U31C U58C, the self-cleavage was 0.36.
The same measure for U26C A56G U60G U72C C79A: 0.12; for U26C U31A C34U A45U A75U U78C: 0.22.
Take U26C U31A U67C: the self-cleavage came out at 0.23.
Turning to U26C G52C U67C, the self-cleavage was found to be 0.09.
Next, U26C U31C U48G A56U: 0.08; U26C U31C A45C: 0.35; U26C C27U U31C U72C: 0.23.
Next, U26C U43C U51C G53U A65G: 0.22; U26C G61A G63A: 0.22; U26C U41A A45G C50A U67A: 0.2.
As to U26C C32A A56G, the self-cleavage is 0.42.
In the case of U26C U43C A47C A65G, the self-cleavage was 0.29.
For U26C U31A U49C U51C U67C U72C, the self-cleavage came to 0.05.
In the case of U26C U41C G46A U48G U67C, the self-cleavage was 0.1.
Regarding U26C G42A U43C U69C, the self-cleavage came to 0.05.
Turning to U26C U31C U60C U78C, the self-cleavage came out at 0.24.
Next, U26C C37U C71G: 0.13; U26C A56G U72C: 0.42; U26C U41A U67C: 0.12.
As to U26C A56G G70C, the self-cleavage turned out to be 0.12.
Next, U26C C32U U43C: 0.1.
The same measure for U26C C34U A65G: 0.19; for U26C U31C U43A A65G: 0.13.
Next, U26C U41A U51G A57G: 0.34; U26C C29G U43C A64U U80A: 0.1.
On to U26C U43C A57G G63U U66C U76C A77G, for which the self-cleavage was 0.12.
Take U26C U43C U60C A65G: the self-cleavage amounted to 0.17.
The same measure for U26C U43C A57G U66A: 0.09; for U26C U41A U48C A77G: 0.4.
As to U26C U41A U60A U72A, the self-cleavage is 0.44.
Next, U26C G42C G73A C79U U80G: 0.29; U26C C38U U72A: 0.13; U26C U31G C44A U74A U80C: 0.14.
For U26C U41C U78C, the self-cleavage was 0.28.
Take U26C U43G G53A: the self-cleavage amounted to 0.2.
For the variant U26C A47G U58C C68U U74C, the self-cleavage was 0.47.
Next, U26C U41A U67A U78A: 0.16; U26C G55U U67C U72A U80A: 0.08; U26C G33U U66C G73A U78A: 0.1.
Next, U26C A56G U69C U80A: 0.09.
As to U26C C32U C38A U49G A64G A65U, the self-cleavage amounted to 0.08.
For U26C U31G A57G, the self-cleavage came to 0.19.
The same measure for U26C A57G U60C U66C U69C: 0.31.
The same measure for U26C C32U U54A U58C A64G U69C: 0.04; for U26C U41C U80A: 0.48.
The same measure for U26C G33A U41C A45G: 0.21; for U26C U31C A47G U66C U72C C81U: 0; for U26C C40G C81U: 0.14.
For U26C U31C G42U U49G U51C G53U U60C, the self-cleavage stood at 0.12.
Next, U26C C40U U51A: 0.35.
The same measure for U26C U43C U69C U80C: 0.11.
U26C C38A A45U A56G U60A U67C: the self-cleavage was 0.11.
Next, U26C G33A A35U U43A U80C: 0.13.
Next, U26C A56G G61A U72C: 0.1; U26C U43C U54A U72C: 0.77; U26C G30U U43C U67G: 0.06.
The same measure for U26C C27U U43C: 0.1; for U26C C27A U43C U49C: 0.17; for U26C A47U A65G U78C: 0.14.
Take U26C U41C U43C U48C U60A U72A: the self-cleavage turned out to be 0.1.
The same measure for U26C U41C G42C A57G U58C: 0.16.
On to U26C C37U U41A U54C A75U, for which the self-cleavage was found to be 0.19.
The same measure for U26C C32U U51C U66C: 0.09.
On to U26C A56G U74C U80C, for which the self-cleavage amounted to 0.33.
Next, U26C U31A G52A U66A: 0.11; U26C C32A G36A U72A: 0.04; U26C C40U U58A: 0.22.
The same measure for U26C U41A U43A U60C U69C: 0.37; for U26C U31C U74C A77G: 0.64.
Next, U26C U43C U49C: 0.27.
On to U26C C39A U51C U78C, for which the self-cleavage worked out at 0.05.
For the variant U26C U41C U67A, the self-cleavage was found to be 0.15.
The same measure for U26C G36C U67C U78G: 0.09.
In the case of U26C G55A A64U A77G, the self-cleavage is 0.07.
The same measure for U26C C32A G70A U72C: 0.16; for U26C C29U C38A U49A: 0.04; for U26C U31A A35G U54C U69A: 0.13.
Regarding U26C U31A A56G U78G, the self-cleavage is 0.14.
Next, U26C A57U U60A: 0.13.
Next, U26C A57G A64U A65C U76C: 1.06.
The same measure for U26C G36U U41A A56C U67C: 0.07.
Consider U26C A56G A64C, for which the self-cleavage is 0.12.
The same measure for U26C U31A A35U G70A: 0.11.
Next, U26C A65G U69C: 0.14; U26C G36A U60C A77U: 0.1; U26C G53C A56U U67A: 0.09.
Consider U26C C40U G53A, for which the self-cleavage turned out to be 0.26.
Consider U26C C40U U51G U54C A56G U80C, for which the self-cleavage turned out to be 0.18.
Consider U26C U43C U80C, for which the self-cleavage turned out to be 0.57.
Next, U26C U31A U51A U60C U80C: 0.29; U26C U31C A45G U51A A56G U72A: 0.04.
The same measure for U26C U43A U74C: 0.34; for U26C A57G A65G: 0.08.
As to U26C C38U U58G U69C U80C, the self-cleavage was found to be 0.09.
For U26C U31A C59U A65C, the self-cleavage is 0.19.
As to U26C G42C A75U, the self-cleavage was 0.12.
Next, U26C U41A U43A U51A A57G U60C C79U: 0.21; U26C U31C U49C A56G U72A U76C U80A: 0.26; U26C U31A G52A A56G U60A U66C U72C: 0.04.
U26C A56U U69C G73A: the self-cleavage was found to be 0.26.
The same measure for U26C G30A A45G: 0.1.
Next, U26C U43A A47U: 0.32; U26C U31C C37U U67A U80C: 0.13.
As for U26C A47G U60C U76C, the self-cleavage was 0.14.
As for U26C U31A U43A U54A U78C, the self-cleavage amounted to 0.15.
Next, U26C U43A U54C U60A A77U U78C: 0.09.
On to U26C C44A U67A, for which the self-cleavage amounted to 0.09.
Next, U26C U31C U66G U80C: 0.14; U26C A57U A65G U66A C71A: 0.05.
The same measure for U26C C62U U72C: 0.21; for U26C U41G G42A U49C U54C A65G: 0.13.
The same measure for U26C C38A A56G C68A: 0.15; for U26C C29G C39U A57U: 0.12.
For U26C U31C U41A C62A, the self-cleavage was found to be 0.17.
The same measure for U26C C38A A57G: 0.09; for U26C U43C U60A U66A U76C: 0.15; for U26C U31G A45G U48C U60G A64G: 0.19.
Regarding U26C U43C A45U, the self-cleavage stood at 0.36.
For the variant U26C G33U C79U, the self-cleavage amounted to 0.38.
Take U26C U41A U67C C71G: the self-cleavage is 0.22.
With U26C C40U U43A U51C A64G, the self-cleavage is 0.1.
With U26C G30A U41A U43C U58A A64U U80C, the self-cleavage worked out at 0.11.
The same measure for U26C A65G U72C U78C: 0.18; for U26C U31C A45G U67C: 0.14; for U26C C38U A56G G73U: 0.28.
Next, U26C U41G U43C G70A U76C U80C: 0.16.
As for U26C C62U U67C, the self-cleavage turned out to be 0.1.
The same measure for U26C C37A U43A G46A U54C: 0.33.
